The whole screen tested about 310,000 compounds, of which about 14,000 (4.5%) showed an effect of 50% or more. Effects have a minus sign here. The list shows a part of the results.
Molecular target: human ether-à-go-go-related gene (hERG) potassium channel (human, UniProt Q12809)
Experiment: primary screen, population patch clamp on CHO cells stably expressing hERG
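Further: peak tail current of the secondary pulse compared with the same well before compound.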

human ether-à-go-go-related gene (hERG) potassium channel, sequence (Q12809 whole entry, looked up): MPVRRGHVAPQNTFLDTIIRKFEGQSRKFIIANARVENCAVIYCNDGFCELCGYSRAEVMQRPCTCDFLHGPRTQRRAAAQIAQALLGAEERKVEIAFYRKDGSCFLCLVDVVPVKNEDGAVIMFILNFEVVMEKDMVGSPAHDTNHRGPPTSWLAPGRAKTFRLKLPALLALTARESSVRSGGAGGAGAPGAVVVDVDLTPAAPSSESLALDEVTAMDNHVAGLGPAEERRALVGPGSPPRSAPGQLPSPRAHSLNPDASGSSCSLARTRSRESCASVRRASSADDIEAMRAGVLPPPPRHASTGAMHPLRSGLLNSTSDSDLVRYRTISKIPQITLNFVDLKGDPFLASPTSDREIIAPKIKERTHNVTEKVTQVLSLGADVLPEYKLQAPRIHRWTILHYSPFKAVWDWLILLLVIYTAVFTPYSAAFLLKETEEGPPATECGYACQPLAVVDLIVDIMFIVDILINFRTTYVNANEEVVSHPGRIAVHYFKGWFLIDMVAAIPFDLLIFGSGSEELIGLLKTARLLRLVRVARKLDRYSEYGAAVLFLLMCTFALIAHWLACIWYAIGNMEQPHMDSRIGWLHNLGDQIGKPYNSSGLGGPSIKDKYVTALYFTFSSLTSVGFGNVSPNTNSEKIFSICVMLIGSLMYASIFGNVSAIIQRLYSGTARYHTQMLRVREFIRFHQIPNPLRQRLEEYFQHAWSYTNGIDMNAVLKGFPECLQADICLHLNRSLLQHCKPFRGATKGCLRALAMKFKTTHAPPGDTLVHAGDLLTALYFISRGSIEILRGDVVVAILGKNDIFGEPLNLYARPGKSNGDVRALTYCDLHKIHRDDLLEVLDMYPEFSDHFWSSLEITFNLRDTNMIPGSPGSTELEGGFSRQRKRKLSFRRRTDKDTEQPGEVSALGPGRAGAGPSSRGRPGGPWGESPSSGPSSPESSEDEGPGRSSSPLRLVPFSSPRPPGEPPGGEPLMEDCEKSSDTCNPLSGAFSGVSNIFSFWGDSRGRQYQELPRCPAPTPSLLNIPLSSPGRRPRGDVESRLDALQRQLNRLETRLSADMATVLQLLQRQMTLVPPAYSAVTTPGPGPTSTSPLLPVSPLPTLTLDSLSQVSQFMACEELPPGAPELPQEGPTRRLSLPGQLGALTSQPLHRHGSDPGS

| SMILES | hERG current change (%, negative = inhibition) at 10uM [%] |
| --- | --- |
| O=C(COc1ccc(Cl)cc1)N1CCCC1 | -7.47 |
| CN(C)c1ccc(NC(=O)c2cc3c(=O)n4ccccc4nc3n2C)cc1 | 16.1 |
| COC(=O)C1=C(CSc2nc3c(cc2C#N)CN(C)CC3)OC(N)=C(C#N)C1c1ccccc1F (stereo not drawn) | -17.6 |
| O=C(CNc1ccccc1Cl)Nc1cc(S(=O)(=O)N2CCOCC2)ccc1Cl | 0.286 |
| Cn1cc(S(=O)(=O)NCc2ccc(F)cc2)c(=O)n(C)c1=O | 17.8 |
| O=C(O)/C=C/C(=O)NCc1cn(-c2ccccc2)nc1-c1cccc(Br)c1 | 4.13 |
| COc1ccccc1NC(=O)N(Cc1ccco1)Cc1cc2cc(C)cc(C)c2[nH]c1=O | -2.39 |
| O=C(NCc1ccccc1F)C1CCN(C(=O)NCc2ccccc2)CC1 | -8.65 |
| CCOC(=O)Cc1csc(NC(=O)CN2CCN(c3ccccc3)CC2)n1 | 4.89 |
| COCCn1nnnc1C(c1cccc(C(F)(F)F)c1)N1CCOCC1.Cl (stereo not drawn) | 21.4 |
| COc1ccc(C(=O)NC(=S)N2CCNC(=O)C2)cc1Br | 5.43 |
| Cc1nnc(NC(=O)c2ccc3c(c2)NC(=O)CS3)s1 | 12.5 |
| CC(NC(=O)CN1C(=O)NC(C)(c2cccc3ccccc23)C1=O)c1ccccc1 (stereo not drawn) | 3.66 |
| CC(C)c1ccc(N(CC(=O)NCC2CCCO2)C(=O)Cn2nnc(-c3cccs3)n2)cc1 (stereo not drawn) | -42.5 |
| CCOC(=O)c1c(-c2ccc(C)o2)csc1NC(=O)CSc1ncn[nH]1 | 3.96 |
| COc1cccc(-c2cc(C(=O)O)no2)c1 | -9.77 |
| CC(=O)c1ccc(NC(=S)N(Cc2ccccc2)C(C)C2CC2)cc1 (stereo not drawn) | 5.51 |
| CC(O)c1nc2ccccc2n1Cc1ccc([N+](=O)[O-])cc1 (stereo not drawn) | -73.4 |
| CN(C)c1cc[n+](Cc2c(Cl)cccc2Cl)cc1.[Cl-] | 18.6 |
| O=C(/C=C/c1cc(Br)ccc1F)OCC(=O)N1CCCC1 | -21.9 |
| Cc1ccnc(N2CCCC(C(=O)NCc3cccs3)C2)n1 (stereo not drawn) | -3.18 |
| CC(c1ccccc1)[n+]1ccccc1.[O-][Cl+3]([O-])([O-])[O-] (stereo not drawn) | 8.98 |
| COc1cccc(/C=c2/s/c(=C(\C#N)C(=O)N3CCOCC3)n(-c3ccccc3)c2=O)c1 | 4.8 |
| O=C(Nc1cccc(Cl)c1)c1ccc2c(c1)OCCO2 | -0.988 |

From article PMC4336329 (PLoS ONE, 2015)
